Results published in the supplement of paper PMC8728848.
Some of the results follow.

Tests used:
Experiment in all cases: glycan array binding signal (z-score within array); higher = stronger binding
Settings in all cases: glycan notation: IUPAC condensed, linker removed
[1] = molecular target: Gal3S(b1-3)[Fuc(a1-4)]GlcNAc
Procedure, shortened: (§1)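 Glycan array data were curated from 3228 arrays in the Consortium for Functional Glycomics database and kept only where the protein sequence was available. Glycan names were converted to IUPAC-condensed notation, and columns mapping to the same glycan were averaged. The binding signal is a within-array Z-score, averaged across arrays of the same protein sequence at different concentrations or buffers and across linkers. Negative Z-scores can be read as non-binding.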

Gal3S(b1-4)Glc = molecular target: Gal3S(b1-4)Glc
Procedure, shortened: as §1

Gal3S(b1-4)Glc6S = molecular target: Gal3S(b1-4)Glc6S
Procedure, shortened: as §1

Gal3S(b1-4)GlcNAc = molecular target: Gal3S(b1-4)GlcNAc
Procedure, shortened: as §1

[2] = molecular target: Gal3S(b1-4)[Fuc(a1-3)]Glc6S
Procedure, shortened: as §1

[3] = molecular target: Gal3S(b1-4)[Fuc(a1-3)]GlcNAc
Procedure, shortened: as §1

[4] = molecular target: Gal3S(b1-4)[Fuc(a1-3)]GlcNAc6S
Procedure, shortened: as §1

Gal3S4S(b1-4)GlcNAc = molecular target: Gal3S4S(b1-4)GlcNAc
Procedure, shortened: as §1

Gal3S6S(b1-4)GlcNAc = molecular target: Gal3S6S(b1-4)GlcNAc
Procedure, shortened: as §1

Gal3S6S(b1-4)GlcNAc6S = molecular target: Gal3S6S(b1-4)GlcNAc6S
Procedure, shortened: as §1

Gal4S(b1-4)GlcNAc = molecular target: Gal4S(b1-4)GlcNAc
Procedure, shortened: as §1

Gal4S6S(b1-4)GlcNAc = molecular target: Gal4S6S(b1-4)GlcNAc
Procedure, shortened: as §1

Gal6P(b1-4)GlcNAc = molecular target: Gal6P(b1-4)GlcNAc
Procedure, shortened: as §1

Gal6S(b1-3)GlcNAc = molecular target: Gal6S(b1-3)GlcNAc
Procedure, shortened: as §1

Gal6S(b1-3)GlcNAc6S = molecular target: Gal6S(b1-3)GlcNAc6S
Procedure, shortened: as §1

Gal6S(b1-4)Glc = molecular target: Gal6S(b1-4)Glc
Procedure, shortened: as §1

Gal6S(b1-4)Glc6S = molecular target: Gal6S(b1-4)Glc6S
Procedure, shortened: as §1

Gal6S(b1-4)GlcNAc = molecular target: Gal6S(b1-4)GlcNAc
Procedure, shortened: as §1

Gal6S(b1-4)GlcNAc6S = molecular target: Gal6S(b1-4)GlcNAc6S
Procedure, shortened: as §1

GalNAc(a1-3)Gal = molecular target: GalNAc(a1-3)Gal
Procedure, shortened: as §1

GalNAc(a1-3)GalNAc = molecular target: GalNAc(a1-3)GalNAc
Procedure, shortened: as §1

[5] = molecular target: GalNAc(a1-3)GalNAc(b1-3)Gal(a1-4)Gal(b1-4)Glc
Procedure, shortened: as §1

[6] = molecular target: GalNAc(a1-3)GalNAc(b1-3)Gal(a1-4)Gal(b1-4)GlcNAc
Procedure, shortened: as §1

GalNAc(b1-3)Gal = molecular target: GalNAc(b1-3)Gal
Procedure, shortened: as §1

[7] = molecular target: GalNAc(b1-3)Gal(a1-4)Gal(b1-4)GlcNAc
Procedure, shortened: as §1

[8] = molecular target: GalNAc(b1-3)Gal(a1-4)Gal(b1-4)GlcNAc(b1-3)Gal(b1-4)Glc
Procedure, shortened: as §1

[9] = molecular target: GalNAc(b1-3)Gal(a1-6)Gal(b1-4)Glc
Procedure, shortened: as §1

GalNAc(b1-3)GalNAc = molecular target: GalNAc(b1-3)GalNAc
Procedure, shortened: as §1

GalNAc(b1-3)GlcNAc = molecular target: GalNAc(b1-3)GlcNAc
Procedure, shortened: as §1

GalNAc(b1-4)Gal(b1-4)Glc = molecular target: GalNAc(b1-4)Gal(b1-4)Glc
Procedure, shortened: as §1

GalNAc(b1-4)GlcNAc = molecular target: GalNAc(b1-4)GlcNAc
Procedure, shortened: as §1

[10] = molecular target: GalNAc(b1-4)GlcNAc(b1-2)Man
Procedure, shortened: as §1

[11] = molecular target: GalNAc(b1-4)GlcNAc(b1-2)Man(a1-3)[GalNAc(b1-4)GlcNAc(b1-2)Man(a1-6)]Man(b1-4)GlcNAc(b1-4)GlcNAc
Procedure, shortened: as §1

[12] = molecular target: GalNAc(b1-4)GlcNAc(b1-3)GalNAc(b1-4)GlcNAc
Procedure, shortened: as §1

GalNAc(b1-4)GlcNAc6S = molecular target: GalNAc(b1-4)GlcNAc6S
Procedure, shortened: as §1

GalNAc(b1-6)GalNAc = molecular target: GalNAc(b1-6)GalNAc
Procedure, shortened: as §1

GalNAc3S(b1-4)GlcNAc = molecular target: GalNAc3S(b1-4)GlcNAc
Procedure, shortened: as §1

GalNAc3S(b1-4)GlcNAc3S = molecular target: GalNAc3S(b1-4)GlcNAc3S
Procedure, shortened: as §1

[13] = molecular target: GalNAc3S(b1-4)[Fuc(a1-3)]GlcNAc
Procedure, shortened: as §1

GalNAc4S6S(b1-4)GlcNAc = molecular target: GalNAc4S6S(b1-4)GlcNAc
Procedure, shortened: as §1

GalNAc6S(b1-4)GlcNAc = molecular target: GalNAc6S(b1-4)GlcNAc
Procedure, shortened: as §1

Glc(a1-4)Glc = molecular target: Glc(a1-4)Glc
Procedure, shortened: as §1

[14] = molecular target: Glc(a1-4)Glc(a1-4)Glc(a1-4)Glc
Procedure, shortened: as §1

Glc(a1-6)Glc(a1-6)Glc = molecular target: Glc(a1-6)Glc(a1-6)Glc
Procedure, shortened: as §1

[15] = molecular target: Glc(a1-6)Glc(a1-6)Glc(a1-6)Glc
Procedure, shortened: as §1

B1: HA-11100 (Pseudomonas aeruginosa), Q02G51_PSEAB (protein)
chain: QFNPNEIKISQQGKTTLIDQSTQRAIINWKGFDVSADEAVRFNQPGVTSSTLNRVTAGQESVIAGRISAPGQVIIYNSNGVVFSGSAKVDVGSLITTTANISDEHFRQGKLIFDQPGNPDARIVNDGSISVAEKGLAAFVAPSVANNGVINARLGTVAMAAGNAATIDLYG
- glycan array binding signal (z-score) [1]: -0.282
- glycan array binding signal (z-score) (Gal3S(b1-4)Glc): -0.321
- glycan array binding signal (z-score) (Gal3S(b1-4)Glc6S): -0.303
- glycan array binding signal (z-score) (Gal3S(b1-4)GlcNAc): -0.36
- glycan array binding signal (z-score) [2]: 0.642
- glycan array binding signal (z-score) [3]: -0.179
- glycan array binding signal (z-score) [4]: -0.451
- glycan array binding signal (z-score) (Gal3S4S(b1-4)GlcNAc): -0.316
- glycan array binding signal (z-score) (Gal3S6S(b1-4)GlcNAc): -0.352
- glycan array binding signal (z-score) (Gal3S6S(b1-4)GlcNAc6S): -0.357
- glycan array binding signal (z-score) (Gal4S(b1-4)GlcNAc): -0.267
- glycan array binding signal (z-score) (Gal4S6S(b1-4)GlcNAc): -0.595
- glycan array binding signal (z-score) (Gal6P(b1-4)GlcNAc): -0.262
- glycan array binding signal (z-score) (Gal6S(b1-3)GlcNAc): -0.427
- glycan array binding signal (z-score) (Gal6S(b1-3)GlcNAc6S): -0.136
- glycan array binding signal (z-score) (Gal6S(b1-4)Glc): 0.008
- glycan array binding signal (z-score) (Gal6S(b1-4)Glc6S): 0.251
- glycan array binding signal (z-score) (Gal6S(b1-4)GlcNAc): 1.21
- glycan array binding signal (z-score) (Gal6S(b1-4)GlcNAc6S): -0.33
- glycan array binding signal (z-score) (GalNAc(a1-3)Gal): 1.36
- glycan array binding signal (z-score) (GalNAc(a1-3)GalNAc): -0.148
- glycan array binding signal (z-score) [5]: -0.122
- glycan array binding signal (z-score) [6]: -0.331
- glycan array binding signal (z-score) (GalNAc(b1-3)Gal): -0.347
- glycan array binding signal (z-score) [7]: -0.117
- glycan array binding signal (z-score) [8]: -0.438
- glycan array binding signal (z-score) [9]: -0.243
- glycan array binding signal (z-score) (GalNAc(b1-3)GalNAc): -0.223
- glycan array binding signal (z-score) (GalNAc(b1-3)GlcNAc): -0.598
- glycan array binding signal (z-score) (GalNAc(b1-4)Gal(b1-4)Glc): -0.269
- glycan array binding signal (z-score) (GalNAc(b1-4)GlcNAc): -0.341
- glycan array binding signal (z-score) [10]: -0.012
- glycan array binding signal (z-score) [11]: 1.11
- glycan array binding signal (z-score) [12]: 0.008
- glycan array binding signal (z-score) (GalNAc(b1-4)GlcNAc6S): -0.328
- glycan array binding signal (z-score) (GalNAc(b1-6)GalNAc): -0.453
- glycan array binding signal (z-score) (GalNAc3S(b1-4)GlcNAc): -0.302
- glycan array binding signal (z-score) (GalNAc3S(b1-4)GlcNAc3S): -0.227
- glycan array binding signal (z-score) [13]: -0.289
- glycan array binding signal (z-score) (GalNAc4S6S(b1-4)GlcNAc): -0.38
- glycan array binding signal (z-score) (GalNAc6S(b1-4)GlcNAc): -0.236
- glycan array binding signal (z-score) (Glc(a1-4)Glc): -0.295
- glycan array binding signal (z-score) [14]: -0.123
- glycan array binding signal (z-score) (Glc(a1-6)Glc(a1-6)Glc): -0.36
- glycan array binding signal (z-score) [15]: -0.282
